# Experiments:
# [1] = test system: toxins (tcdA and tcdB) of C. difficile ATCC BAA 1870; experiment: Toxin inhibition assay (ELISA); assay type: cell-based, Clostridioides difficile
# [2] = test system: C. difficile (ATCC 43255); experiment: Murine model of CDI; assay type: in vivo, C57BL/6 mice; conditions: oral gavage daily for 5 days, n = 5
# [3] = test system: C. difficile ATCC BAA 1870; experiment: Time-kill kinetics study; conditions: 5 × MIC
# C. difficile [4] = experiment: In vitro susceptibility assay (MIC); conditions: for MIC: Clostridioides difficile
# C. difficile [5] = experiment: Minimum bactericidal concentration (MBC) assay; conditions: Clostridioides difficile
# [6] = C. difficile Isolate 20100207, NR-49278
# [7] = C. difficile Isolate 20100502, NR-49277
# [8] = C. difficile Isolate 20110870, NR-49288
# [9] = C. difficile Isolate 20110999, NR-49286
# [10] = C. difficile Isolate 20120187, NR-49290
# [11] = starting inoculum 3.5 × 10^6 cfu/ml
Compound,reduction of toxin production ([1]; 0.25 × MIC),"MIC (C. difficile [4]; C. difficile I2, NR-13428) [µg/mL]","MIC (C. difficile [4]; C. difficile I4, NR-13430) [µg/mL]","MIC (C. difficile [4]; C. difficile I6, NR-13432) [µg/mL]","MIC (C. difficile [4]; C. difficile I13, NR-13553) [µg/mL]",MIC (C. difficile [4]; [7]) [µg/mL],MIC (C. difficile [4]; [9]) [µg/mL],MIC (C. difficile [4]; [10]) [µg/mL],"MIC (C. difficile [4]; C. difficile P7, NR-32887) [µg/mL]","MIC (C. difficile [4]; C. difficile P9, NR-32889) [µg/mL]","MBC (C. difficile [5]; C. difficile I2, NR-13428) [µg/mL]","MBC (C. difficile [5]; C. difficile I4, NR-13430) [µg/mL]","MBC (C. difficile [5]; C. difficile I6, NR-13432) [µg/mL]","MBC (C. difficile [5]; C. difficile I13, NR-13553) [µg/mL]",MBC (C. difficile [5]; [7]) [µg/mL],MBC (C. difficile [5]; [9]) [µg/mL],MBC (C. difficile [5]; [10]) [µg/mL],"MBC (C. difficile [5]; C. difficile P7, NR-32887) [µg/mL]","MBC (C. difficile [5]; C. difficile P9, NR-32889) [µg/mL]","MBC (C. difficile [5]; C. difficile P30, NR-32904) [µg/mL]",also measured
CN[C@H](CC(C)C)C(=O)N[C@H]1C(=O)N[C@@H](CC(N)=O)C(=O)N[C@H]2C(=O)N[C@H]3C(=O)N[C@H](C(=O)N[C@H](C(=O)O)c4cc(O)cc(O)c4-c4cc3ccc4O)[C@H](O)c3ccc(c(Cl)c3)Oc3cc2cc(c3O[C@@H]2O[C@H](CO)[C@@H](O)[C@H](O)[C@H]2O[C@H]2C[C@](C)(N)[C@H](O)[C@H](C)O2)Oc2ccc(cc2Cl)[C@H]1O [Vancomycin],did not reduce toxin production,1,1,0.25,0.25,0.25,0.25,1,0.5,1,1,1,0.25,0.25,0.25,0.25,1,0.5,1,0.25,"protection of infected mice (survival) ([2]; 10 mg/kg): ~100%; reduction in bacterial count by 24 h ([3]; 24 h, starting inoculum 3.5 × 10^6 cfu/ml): ~ 2.75 log10 CFU/ml; MIC (C. difficile [4]; [6]): 0.25 µg/mL; MIC (C. difficile [4]; [8]): 1 µg/mL; MIC (C. difficile [4]; C. difficile P19, NR-32895): 1 µg/mL; MIC (C. difficile [4]; C. difficile P30, NR-32904): 0.25 µg/mL; MBC (C. difficile [5]; [6]): 0.5 µg/mL; MBC (C. difficile [5]; [8]): 1 µg/mL; MBC (C. difficile [5]; C. difficile P19, NR-32895): 2 µg/mL"
CCc1c(Cl)c(O)c(Cl)c(O)c1C(=O)O[C@H]1[C@H](O)[C@H](OC)[C@H](OC/C2=C\C=C\C[C@H](O)/C(C)=C/[C@H](CC)[C@@H](O[C@@H]3OC(C)(C)[C@@H](OC(=O)C(C)C)[C@H](O)[C@@H]3O)/C(C)=C/C(C)=C/C[C@@H]([C@@H](C)O)OC2=O)O[C@@H]1C [Fidaxomicin],~36%,0.03,0.015,0.06,0.03,0.06,0.25,0.06,0.03,0.03,0.03,0.015,0.06,0.03,0.06,0.25,0.06,0.03,0.03,0.06,"reduction of toxin production ([1]; 0.5 × MIC): ~57%; time to bactericidal activity (≥ -3log10 CFU/ml reduction in bacterial viability) [3, 11]: ≤ 8 h; MIC (C. difficile [4]; C. difficile P6, NR-32886): 0.03 µg/mL; MIC (C. difficile [4]; C. difficile P19, NR-32895): 0.03 µg/mL; MIC (C. difficile [4]; C. difficile P30, NR-32904): 0.06 µg/mL; MBC (C. difficile [5]; C. difficile P6, NR-32886): 0.03 µg/mL"
CO[C@H]1[C@H](O)C[C@@H](O[C@@H]2C[C@H](Oc3cc4cc5c(c(O)c4c(O)c3C)C(=O)[C@@H](O[C@H]3C[C@H](O[C@H]4C[C@H](O[C@H]6C[C@@](C)(O)[C@@H](OC(=O)C(C)C)[C@H](C)O6)[C@H](O)[C@@H](C)O4)[C@H](O)[C@@H](C)O3)[C@H]([C@H](OC)C(=O)[C@@H](O)[C@@H](C)O)C5)O[C@H](C)[C@H]2OC(C)=O)O[C@@H]1C [NP-003875],~29%,,,,,,,,,,0.03,0.03,0.03,0.03,0.03,0.03,0.03,0.03,0.015,0.015,"reduction of toxin production ([1]; 0.5 × MIC): ~40%; protection of infected mice (survival) ([2]; 5 mg/kg): 100%; killing kinetics compared to fidaxomicin ([3]; in words): comparable to that of fidaxomicin; time of exposure to reduce cell viability below the limit of detection (LOD) [3, 11]: ≤ 8 h; fold lower MIC90 value compared to that of fidaxomicin (C. difficile [4]): 3 fold; MBC (C. difficile [5]; [6]): 0.06 µg/mL; MBC (C. difficile [5]; [8]): 0.03 µg/mL; MBC (C. difficile [5]; C. difficile P6, NR-32886): 0.03 µg/mL; MBC (C. difficile [5]; C. difficile P19, NR-32895): 0.015 µg/mL"
